# PubChem BioAssay AID361 (National Center for Advancing Translational Sciences (NCATS), 2006)
# Among all 51,000 compounds or so, about 600 (1.2%) were called active. Inconclusive means that the source gave no clear call. Such entries were picked first, then a sample of the others. Rule as the data show it: active = potency below about 11 µM; inconclusive = mostly about 12 µM to 25 µM; inactive = weaker than that;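 the screen sought inhibitors and activators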. Potencies of inconclusive entries are left out as doubtful fits.
# Tested on: pyruvate kinase (Bacillus stearothermophilus)
# Assay: Pyruvate Kinase
# Conditions: purified pyruvate kinase, luminescence ATP production; ribose 5-phosphate activator present at AC10
# How it was run: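 Compounds were mixed with substrate buffer (pH 7.2, 2 mM PEP, 0.1 mM ADP, 0.7 nM ribose 5-phosphate) and then with 10 nM enzyme. After 2 h at room temperature, a luciferase stop/detection reagent was added and luminescence measured.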
# Potency is read from the fitted curve at half-maximal effect.
row,SMILES,Potency
1,COc1ccccc1N1CCN(S(=O)(=O)c2c(C)ccc3nsnc23)CC1,active: 2.87 µM
2,COc1ccc(C(=O)CN2C(=O)NC3(CCCc4ccccc43)C2=O)cc1OC (stereo unspecified),inconclusive [increasing]
3,CCCN1C(=O)/C(=C2\SC(N3CCCCC3)=NC2=O)c2ccccc21,inconclusive [decreasing]
4,COc1ccc(Nc2nc(C)c3ccccc3n2)cc1,inconclusive [decreasing]
5,Cc1ccc(S(=O)(=O)N2CCC(C(=O)OCC(=O)N3CC(=O)Nc4ccccc43)CC2)cc1,inconclusive [increasing]
6,CC(=Nc1ccc(O)cc1)c1sc2ccccc2c1O,inconclusive [decreasing]
7,COc1cc2cc3c(N)c(C(=O)NCc4ccco4)sc3nc2cc1OC,inconclusive [decreasing]
8,COc1cc(OC)cc(-c2cc3nc4c(c(N5CCN(c6ncccn6)CC5)n3n2)CCCC4)c1,inactive: > 57 µM
9,O=C(c1ccc(-c2ccccc2)cc1)N1CCC(C(=O)N2CCCC2)CC1,inactive: > 57 µM
10,O=C(O)CC(NS(=O)(=O)c1ccc(Br)cc1)c1ccco1 (stereo unspecified),inconclusive [increasing]
11,O=C(COc1ncnc2sccc12)N1CCc2ccccc2C1,inconclusive [increasing]
12,Cn1c(=O)c2c(ncn2CC(=O)Nc2nnc(Cc3ccccc3)s2)n(C)c1=O,inconclusive [increasing]
13,Cc1nc(N)sc1-c1csc(N(C)c2ccc(O)cc2)n1,inactive
14,Cn1c(-c2ccc(Br)o2)nc2ccccc21,inconclusive [decreasing]
15,CCCNc1ncnc2c1cnn2-c1ccc(OC)cc1,inconclusive [decreasing]
16,Cc1cc(C)c(C)c(S(=O)(=O)Nc2ccc(O)cc2)c1C,inconclusive [increasing]
17,O=c1oc2cc(O)ccc2c2c1CCCC2,inconclusive [decreasing]
18,OCCSc1nc(-c2cccnc2)nc2ccccc12,inconclusive [decreasing]
19,O=C1c2ccccc2C(=O)N1CC1c2ccccc2CCN1S(=O)(=O)c1cnc[nH]1 (stereo unspecified),inconclusive [increasing]
20,O=C(NC1=NCCS1)c1ccc(-c2ccc(Cl)cc2)o1,active: 5.38 µM
21,O=C(Nc1cccc(Cl)c1)c1ccc2c(=O)n3c(nc2c1)CCCCC3,inconclusive [decreasing]

row,SMILES,Potency
1,CCc1ccccc1Nc1nc(N)nc(COC(=O)c2cccn2C)n1,inactive: > 57 µM
2,COc1ccc(NC(=O)CN2CCN(S(=O)(=O)c3ccc(Cl)cc3)CC2)cc1,inconclusive [increasing]
3,C/C(N)=C(/C#N)C(=O)CSc1nnc(Nc2c(C)cccc2C)s1,inconclusive [increasing]
4,Cc1ccc(S(=O)(=O)CC(c2ccccc2)N2CCOCC2)cc1 (stereo unspecified),inactive: > 57 µM
5,Cc1ccc(-c2nc3c(=O)n(C)c4ccccc4c3o2)cc1,active: 0.175 µM
6,CCc1cc2c(=O)c(-c3nc4ccccc4n3C)coc2c(CN2CCN(C)CC2)c1O,inactive: > 57 µM
7,COc1ccc2c(c1OC)C(=O)N1c3ccccc3COC21 (stereo unspecified),inconclusive [decreasing]
8,COc1ccc2c3c(c(=O)oc2c1OCC(N)=O)CCCC3,inconclusive [decreasing]
9,CCOC(=O)c1c(/N=C/N(C)C)sc(C(=O)OC)c1C,inactive: > 57 µM
10,COc1cccc2cc(-c3cn4cccc(C)c4n3)c(=O)oc12,inactive: > 57 µM
11,CCN1C(=O)C(O)(CC(=O)c2cc(C)ccc2C)c2ccccc21 (stereo unspecified),inconclusive [increasing]
12,c1ccc(-c2nnc(CN3CCCc4ccccc43)o2)cc1,inactive: > 57 µM
13,Cc1ccccc1-c1nc2cc(N)ccc2o1,inconclusive [decreasing]
14,O=C(NC1CC1)c1cccc(Nc2ccc(-c3ccc4c(c3)OCCO4)nn2)c1,active: 1.46 µM
15,O=C(c1ccc(N2CCOCC2)cc1)c1cccs1,inconclusive [decreasing]
16,Cn1c(=O)[nH]c2cc3ccccc3cc21,inconclusive [decreasing]
17,COC(=O)C1=C(C)Nc2nnnn2C1c1ccc(Cl)cc1Cl (stereo unspecified),inconclusive [increasing]
18,CNc1nnc(CSc2nc3ccccc3s2)s1,inconclusive [increasing]
19,CCOC(=O)N1CCN(S(=O)(=O)c2cc(OCC(N)=O)c(C)cc2Cl)CC1,inconclusive [increasing]
20,COc1ccc(OC)c(N(CC(=O)N2CCN(c3cc(Cl)ccc3C)CC2)S(C)(=O)=O)c1,inconclusive [increasing]
21,Cn1c(=O)oc2cc(S(=O)(=O)Nc3cccc4c3CCCC4)ccc21,inconclusive [increasing]

row,SMILES,Potency
1,Cc1nccn1-c1cc(C(C)C)c(C#N)c2nc3ccccc3n12,inactive: > 25.6 µM
2,COc1cc(C2C(C(=O)N3CCOCC3)=C(C)NC3=C2C(=O)CCC3)ccc1OC(C)=O (stereo unspecified),inactive: > 57 µM
3,CS(=O)(=O)N(CC(=O)O)c1cc(Cl)cc(Cl)c1,inconclusive [increasing]
4,CCOc1ccc(NC(=O)c2nn(C)cc2Br)cc1,inconclusive [decreasing]
5,Cc1c(C(=O)Nc2ccc(N3CCOCC3)cc2)oc2ccccc12,inconclusive [decreasing]
6,COC(=O)c1nnn(-c2nonc2N)c1CSc1nc2ccccc2s1,inconclusive [increasing]
7,CCN(CC)C(=O)CSc1nnc(-c2ccc(S(=O)(=O)NCc3ccccc3Cl)cc2)o1,inactive: > 57 µM
8,C(=C\c1ccco1)/C=N/n1cnnc1,inactive: > 57 µM
9,O=C(O)C1Sc2[nH]c(=O)sc2C2c3cc(Cl)ccc3OC(=O)C12 (stereo unspecified),inconclusive [increasing]
10,Cc1ccc(-c2n[nH]c(=O)c3ccccc23)cc1N,inactive: > 57 µM
11,N#Cc1nc(-c2ccc(Cl)cc2)oc1NCc1cccc2c1OCO2,inactive: > 57 µM
12,CCN(CC)c1ccc(NC(=O)c2ccco2)cc1,inconclusive [decreasing]
13,COC(=O)CNC(=O)COC(=O)c1cc(Cl)cc(Cl)c1N,inconclusive [increasing]
14,O=C(Nc1cccc(-c2nnc(-c3ccccc3)o2)c1)c1ccc(Br)o1,inconclusive [decreasing]
15,O=C(CN1CCCc2ccccc21)NC(=O)NCc1ccco1,inconclusive [increasing]
16,O=C(c1ccco1)N1CCN(C(=O)C2CC(c3ccc(Cl)c(Cl)c3)=NO2)CC1 (stereo unspecified),inconclusive [increasing]
17,NC(=O)CSc1nc2sc3c(c2c2ncnn12)CCCC3,active: 1.3 µM
18,O=S(=O)(NCc1cccnc1)c1ccc(Cl)c(Cl)c1Cl,inconclusive [increasing]
19,Cc1ccc2c(c1)c1nc3ccccc3nc1n2CCN1CCOCC1,inconclusive [decreasing]
20,O=C(c1ccco1)n1c(=S)nc2ccccn21,inconclusive [decreasing]
21,CC(=O)NC(Cc1ccc(C(C)C)cc1)C(=O)NC1CCN(c2nc(C)cc(C)n2)CC1 (stereo unspecified),inactive: > 57 µM

row,SMILES,Potency
1,Cc1ccc(S(=O)(=O)N2CCC(C(=O)N3Cc4ccccc4C3)CC2)cc1,inconclusive [increasing]
2,COc1ccc2c(c1)Cc1sc(NC(C)=O)nc1-2,inconclusive [decreasing]
3,COc1ccc(C(=O)c2oc3ccccc3c2N)cc1,inconclusive [decreasing]
4,CCCCC(=O)Nc1cc(N(C)C)nc2ccccc12,inactive: > 57 µM
5,Cc1nn(-c2ccc(F)cc2)c(C)c1NS(=O)(=O)c1ccc(Cl)cc1,inconclusive [increasing]
6,O=C(Nc1cccc(Cl)c1N1CCCC1)c1ccc(Br)o1,inactive: > 57 µM
7,Nc1c(N2CCOCC2)cc(Cl)c2nonc12,inconclusive [increasing]
8,O=C(COc1ccccc1)Nc1cccc(-c2nnc(-c3ccccc3)o2)c1,inactive: > 57 µM
9,CCOC(=O)c1[nH]c2ccc(OCC)cc2c1NC(=O)CN1CCN(c2ccccc2)CC1,inactive: > 57 µM
10,Cc1nnsc1NC(=O)OCC(C)C,inactive: > 57 µM
11,N#C/C(=C\Nc1ccc2c(c1)OCCO2)c1nc2ccccc2[nH]1,inconclusive [decreasing]
12,CCOc1ccccc1OCc1nn2c(-c3ccc(C)cc3)nnc2s1,inconclusive [increasing]
13,CC(=O)N1CCN(CC(=O)Nc2c(Cl)cc(Cl)cc2Cl)CC1,inconclusive [increasing]
14,Cn1c(=NC(=O)c2cnccn2)sc2ccccc21,inconclusive [decreasing]
15,COc1ccc(OC(=O)c2cc3ccccc3o2)cc1,inconclusive [decreasing]
16,Cn1c(-c2ccc3ccccc3n2)nc2cnccc21,inconclusive [decreasing]
17,COc1ccc(N(CC(=O)Nc2ccccc2SC)S(C)(=O)=O)cc1OC,inconclusive [increasing]
18,O=C(Nc1cccc(C(F)(F)F)c1)C1CCCN1S(=O)(=O)c1cccc2cccnc12 (stereo unspecified),active: 8.29 µM
